Results are given in words; binding and its absence hold for the method and conditions named. Binding seen in cells or lysates may run through a third protein. Some results given as binding are weak or reduced against the parent protein; the word gives no strength. For some assays here: Tags and fused reporters may be left off the sequences shown. Each block holds one molecule with its values, some of them ahead of it.
Assays:
[1] = molecular target: GST–HESX1 (aa 1–185) (mouse) (UniProt Q61658); assay: pull-down; GST–HESX1 (aa 1–185) or GST on glutathione–sepharose beads incubated with about 1 mg protein extract of untransfected ES cells; Western blot with anti-DNMT1 antibody; only the target purified
[2] = molecular target: full-length HA–HESX1 (mouse) (UniProt Q61658); assay: co-IP; 293T cells co-transfected with HA–HESX1 and Flag–DNMT1 constructs; lysis buffer with 1% Triton X-100; anti-Flag or anti-HA antibodies on protein G sepharose, 2 h, 4 °C; blots with HRP-conjugated anti-HA or anti-Flag
[3] = molecular target: full-length HA–HESX1 (mouse) (UniProt Q61658); assay: co-IP; transfected CHO cells, HA–HESX1 and Flag–DNMT1; unpublished data; protein levels much lower than in 293T
[4] = molecular target: Flag–DNMT1 (aa 1–158) (mouse) (UniProt P13864); assay: co-IP; 293T cells co-transfected with HA–HESX1 and Flag–DNMT1 constructs; lysis buffer with 1% Triton X-100; anti-Flag or anti-HA antibodies on protein G sepharose, 2 h, 4 °C; blots with HRP-conjugated anti-HA or anti-Flag
[5] = molecular target: Flag–DNMT1 (aa 158–1620) (mouse) (UniProt P13864); assay: as above
[6] = molecular target: Flag–DNMT1 (aa 1–296) (mouse) (UniProt P13864); assay: as above
[7] = molecular target: Flag–DNMT1 (aa 296–1620) (mouse) (UniProt P13864); assay: as above
[8] = molecular target: full-length Flag–DNMT1 (aa 1–1620) (mouse) (UniProt P13864); assay: as above
[9] = molecular target: full-length Flag–DNMT1 (aa 1–1620) (mouse) (UniProt P13864); assay: co-IP; transfected CHO cells, HA–HESX1 and Flag–DNMT1; unpublished data; protein levels much lower than in 293T
[10] = molecular target: GST–HESX1 (aa 1–185) (mouse) (UniProt Q61658); assay: pull-down; about 2 ug GST fusion (or GST alone) on glutathione–sepharose beads incubated with 35S-methionine-labelled in vitro translated protein, 2 h, 4 °C, binding buffer (20 mM Tris–HCl pH 7.5, 200 mM NaCl, 1 mM EDTA, 10% glycerol); SDS-PAGE, autoradiography; only the target purified
[11] = molecular target: T1, GST–HESX1 (aa 1–107) (mouse) (UniProt Q61658); assay: as above
T1 sequence: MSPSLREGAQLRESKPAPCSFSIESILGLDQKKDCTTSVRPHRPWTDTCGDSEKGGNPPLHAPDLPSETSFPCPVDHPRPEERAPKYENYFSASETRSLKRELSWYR

Sequences of proteins named here, by UniProt entry; tags and fusion partners are left off. A change or cut given only in a name is not applied to a line headed by its entry. Residues count along the entry.
UniProt P13864: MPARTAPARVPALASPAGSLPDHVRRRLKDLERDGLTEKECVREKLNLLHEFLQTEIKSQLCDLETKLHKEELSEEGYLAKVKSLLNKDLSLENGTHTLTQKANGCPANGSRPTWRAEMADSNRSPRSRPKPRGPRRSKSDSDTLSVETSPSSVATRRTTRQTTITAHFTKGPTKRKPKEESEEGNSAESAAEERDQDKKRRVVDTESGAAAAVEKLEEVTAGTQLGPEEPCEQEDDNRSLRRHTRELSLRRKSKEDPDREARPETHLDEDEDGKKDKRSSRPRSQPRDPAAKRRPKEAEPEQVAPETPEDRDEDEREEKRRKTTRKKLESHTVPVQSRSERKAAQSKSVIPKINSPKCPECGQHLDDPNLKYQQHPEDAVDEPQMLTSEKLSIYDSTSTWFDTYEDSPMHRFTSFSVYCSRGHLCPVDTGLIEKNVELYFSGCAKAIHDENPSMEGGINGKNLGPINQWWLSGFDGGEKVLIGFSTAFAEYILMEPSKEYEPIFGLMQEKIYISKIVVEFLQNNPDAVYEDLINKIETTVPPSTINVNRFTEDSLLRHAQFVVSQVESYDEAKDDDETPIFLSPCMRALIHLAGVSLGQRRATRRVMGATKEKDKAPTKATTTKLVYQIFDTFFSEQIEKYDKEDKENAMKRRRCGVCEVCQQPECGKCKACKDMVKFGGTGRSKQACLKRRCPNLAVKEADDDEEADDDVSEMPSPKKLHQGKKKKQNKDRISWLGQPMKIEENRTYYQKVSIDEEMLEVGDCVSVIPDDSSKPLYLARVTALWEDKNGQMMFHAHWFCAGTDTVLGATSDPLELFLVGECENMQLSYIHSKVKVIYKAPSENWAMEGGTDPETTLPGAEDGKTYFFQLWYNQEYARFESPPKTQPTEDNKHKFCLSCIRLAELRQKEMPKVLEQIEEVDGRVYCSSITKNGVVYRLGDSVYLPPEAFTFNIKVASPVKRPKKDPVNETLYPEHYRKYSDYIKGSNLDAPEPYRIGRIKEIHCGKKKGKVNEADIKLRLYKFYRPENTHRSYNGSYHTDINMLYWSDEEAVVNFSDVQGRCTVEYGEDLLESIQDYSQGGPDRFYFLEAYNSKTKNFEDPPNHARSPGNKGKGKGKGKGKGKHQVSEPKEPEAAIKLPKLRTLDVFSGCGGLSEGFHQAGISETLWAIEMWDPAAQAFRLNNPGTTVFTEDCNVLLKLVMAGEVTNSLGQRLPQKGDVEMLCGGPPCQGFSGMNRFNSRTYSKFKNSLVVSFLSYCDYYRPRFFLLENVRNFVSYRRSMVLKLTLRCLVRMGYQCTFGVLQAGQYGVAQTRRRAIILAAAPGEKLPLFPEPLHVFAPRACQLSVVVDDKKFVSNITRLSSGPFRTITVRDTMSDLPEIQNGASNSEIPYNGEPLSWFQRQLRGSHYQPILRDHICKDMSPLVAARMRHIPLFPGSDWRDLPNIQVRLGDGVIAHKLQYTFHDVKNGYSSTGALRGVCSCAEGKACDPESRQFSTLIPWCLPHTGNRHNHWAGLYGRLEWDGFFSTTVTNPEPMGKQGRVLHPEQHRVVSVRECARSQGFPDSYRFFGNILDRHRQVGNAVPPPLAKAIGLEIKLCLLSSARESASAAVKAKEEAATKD
GST–DNMT1 (aa 1–343): residues 1-343 of P13864
Flag–DNMT1 (aa 1–296): residues 1-296 of P13864
Flag–DNMT1 (aa 1–158): residues 1-158 of P13864
Flag–DNMT1 (aa 158–1620): residues 158-1620 of P13864
Flag–DNMT1 (aa 296–1620): residues 296-1620 of P13864
GST–DNMT1 (aa 350–609): residues 350-609 of P13864
GST–DNMT1 (aa 613–748): residues 613-748 of P13864
GST–DNMT1 (aa 653–730): residues 653-730 of P13864
GST–DNMT1 (aa 686–812): residues 686-812 of P13864
GST–DNMT1 (aa 746–1110): residues 746-1110 of P13864
GST–DNMT1 (aa 1124–1620): residues 1124-1620 of P13864
UniProt D3YXK2: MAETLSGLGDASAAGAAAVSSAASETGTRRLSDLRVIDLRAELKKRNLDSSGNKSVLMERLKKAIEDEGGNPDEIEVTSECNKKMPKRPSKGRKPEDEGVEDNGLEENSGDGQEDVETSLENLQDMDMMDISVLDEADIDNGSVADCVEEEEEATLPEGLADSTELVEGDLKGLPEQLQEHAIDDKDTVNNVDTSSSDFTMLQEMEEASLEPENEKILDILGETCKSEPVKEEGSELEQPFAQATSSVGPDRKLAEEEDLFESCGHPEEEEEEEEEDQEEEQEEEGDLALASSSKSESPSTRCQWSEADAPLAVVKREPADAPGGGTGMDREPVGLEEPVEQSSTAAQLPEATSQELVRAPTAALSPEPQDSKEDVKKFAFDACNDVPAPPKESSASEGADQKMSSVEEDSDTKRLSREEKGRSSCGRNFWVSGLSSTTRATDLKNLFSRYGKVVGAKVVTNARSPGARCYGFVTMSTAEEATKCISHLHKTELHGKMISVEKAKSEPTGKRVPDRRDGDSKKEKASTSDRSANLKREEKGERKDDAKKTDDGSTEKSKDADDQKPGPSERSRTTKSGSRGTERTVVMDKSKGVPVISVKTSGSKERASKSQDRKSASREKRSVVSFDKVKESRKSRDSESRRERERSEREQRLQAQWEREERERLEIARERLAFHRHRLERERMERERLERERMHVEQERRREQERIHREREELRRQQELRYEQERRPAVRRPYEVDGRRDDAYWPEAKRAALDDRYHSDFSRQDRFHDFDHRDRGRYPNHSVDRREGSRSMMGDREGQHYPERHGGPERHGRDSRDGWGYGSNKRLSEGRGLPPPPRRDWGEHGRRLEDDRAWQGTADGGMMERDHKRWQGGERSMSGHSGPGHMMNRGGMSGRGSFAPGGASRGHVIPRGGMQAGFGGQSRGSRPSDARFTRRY

[12] = molecular target: GST–DNMT1 (aa 613–748) (mouse) (UniProt P13864); assay: as above
[13] = molecular target: GST–DNMT1 (aa 686–812) (mouse) (UniProt P13864); assay: as above
[14] = molecular target: GST–DNMT1 (aa 1124–1620) (mouse) (UniProt P13864); assay: as above
[15] = molecular target: GST–DNMT1 (aa 350–609) (mouse) (UniProt P13864); assay: as above
[16] = molecular target: GST–DNMT1 (aa 653–730) (mouse) (UniProt P13864); assay: as above
[17] = molecular target: GST–DNMT1 (aa 746–1110) (mouse) (UniProt P13864); assay: as above
[18] = molecular target: GST–DNMT1 (aa 1–343) (mouse) (UniProt P13864); assay: as above

Molecule: endogenous DNMT1 of ES cells (from UniProt P13864 1-1620)
binding [1]: binds

Molecule: full-length Flag–DNMT1 (aa 1–1620) (from UniProt P13864 1-1620)
binding [2]: binds
binding [3]: binds

Molecule: full-length HA–HESX1 (from UniProt Q61658 1-185)
binding [4]: no binding
binding [5]: binds
binding [6]: binds weakly
binding [7]: binds
binding [8]: binds
binding [9]: binds

Molecule: in vitro translated SAFB1 (from UniProt D3YXK2 1-937)
binding [10]: binds
binding [11]: binds

B1: in vitro translated SRFBP1 (protein, UniProt Q9CZ91 1-441)
chain: MAADPLPPSAMVQPGTLNLNNEVVKMRKEVKRIRVLVIRKLVRSVGRLKSKKGTEDALLKNQRRAQRLLEEIHAMKELKPDVVTKSALSDDINFEKTCKKPDSTATDRAVARLAGHPLLKKKIDVLKDAVQAFKDARQSAPAAESSESTSGEGRCKDIARSKDDARESQHPERTVVREQKAKDTNTAAKNAASGSKEKLAKTEQAPRAGTTPGSQGRPSGKGAGVNSEHQGAPAPGDSNQGKASTKTPEDSVCEPANNGVSEEEESEGEKEYFDDSTEERFYKQSSASEDSDSGDDFFIGKVRRTRKKESGVHSSAKELKPLPKVPSKTSTLETPWDVRNDKHRPIPEARKFESVFFHSLAGPKSSRRDPREQAPKNKAPDFPENEPPVKKQFTKSAYRGFESVKQTMQAPLHPSWEASRRRKEQQSKIAVFQGKKITFDD
modifications: 35S-methionine label
binding [10]: binds
binding [11]: binds

B2: in vitro translated LONP2 (protein, UniProt Q9DBN5 1-852)
chain: MSSVSPIQIPSRLPLLLTHESVLLPGSTMRTSVDTARNLQLVRSRLLKGTSLQSTILGVIPNTPDPASDTQDLPPLHRIGTAALAVQVVGSNWPKPHYTLLITGLCRFQIVQVLKEKPYPVAEVEQLDRLEEFPNICKSREELGELSEQFYRYAVQLVEMLDMSVPAVAKLRRLLDNLPREALPDILTSIIRTSNKEKLQILDAVSLEDRFKMTIPLLVRQIEGLKLLQKTRKPKQDDDKRVIAIRPIRRIPHIPGTLEDEEEEEDNDDIVMLEKKIRTSSMPEQAHKVCVKEIKRLKKMPQSMPEYALTRNYLELMVELPWNKSTTDRLDIRAARILLDNDHYAMEKLKRRVLEYLAVRQLKNNLKGPILCFVGPPGVGKTSVGRSVAKTLGREFHRIALGGVCDQSDIRGHRRTYVGSMPGRIINGLKTVGVNNPVFLLDEVDKLGKSLQGDPAAALLEVLDPEQNHNFTDHYLNVAFDLSQVLFIATANTTATIPPALLDRMEIIQVPGYTQEEKIEIAHRHLIPKQLEQHGLTPQQIQIPQHTTLAIITRYTREAGVRSLDRKFGAICRAVAVKVAEGQHKEAKLDRSDVADGEGCKEHVLEDAKPESISDTADLALPPEMPILIDSHALKDILGPPLYELEVSERLSQPGVAIGLAWTPLGGKIMFVEASRMDGEGQLTLTGQLGDVMKESAHLAISWLRSNAKKYHLTNAFGSFDLLDNTDIHLHFPAGAVTKDGPSAGVTIVTCLASLFSGRLVRSDVAMTGEITLRGLVLPVGGIKDKVLAAHRAGLKQIIIPQRNEKDLEEIPSNVRQDLSFVTASCLDEVLNAAFDGGFPVKTRPGLIDSKL
modifications: 35S-methionine label
binding [10]: binds
binding [11]: binds

Continued, values first:

binding [10]: binds
binding [11]: binds weakly
Molecule: in vitro translated full-length DNMT1 (aa 1–1620) (from UniProt P13864 1-1620)

binding [12]: binds
binding [13]: no binding
binding [14]: binds
binding [15]: binds
binding [16]: binds
binding [17]: binds weakly
binding [18]: binds
Molecule: in vitro translated full-length HESX1 (aa 1–185) (from UniProt Q61658 1-185)

binding [10]: binds
binding [11]: binds
B3: in vitro translated ZFP592 (clone lacking 120 aa of the N-terminal part) (domain or fragment, UniProt Q8BHZ4 121-1262)
chain: RSFTSKLEPSKSEPLPTFNQFSPISSPEPEDPVKDNGFGIKSKHSDSYFPPPPGTVGGPVLEALSKFPVPELHMFDHFCKKEPKPEPLPLESQQEHEQGGQKVVEPHKDLDSSRFFGEALEFNSHPSNSIGEPKKLAPELSACSSVPPRQRLKPAHSKLSSCVAALVALQAKRVANVTKEDQPGHTKDSSGPTKEGSKGSPKMPKSPKSPRSPLEATRKSIKPSDSPRSICSDSSSKGSPSVAASSPPAIPKVRIKTIKTSSGEIKRTVTRILPDPDDPSKSPAESPAGSTITEAPSEAPGDEGTAMPVEEHFSEAGIHSGSPQGDRKGDENMIKTSDSSSPCRISGSRVPKGSALNSQASKKQQSTAPQASTPAASLLPKAVHLANLNLVPHSVAASVTAKSSAQRRSQPQVTQMTVPLVHQVKKAAPLIVEVFNKVLHSSNPVPLYAPNLSPPADSRIHVPASGYCCLECGDAFALEKSLSQHYSRRSVHIEVLCTLCSKTLLFFNKCSLLRHARDHKSKGLVMQCSQLLVKPISADQMFVAAPVNSTAPATPAASSSPKPSPTLDNASSVIPALPLYPDPVRLIRYGTKCPECHKQMRDYMVLATHFQRTTEETEGLTCQVCQMLLPNQCSFCAHQRIHAHKSPYCCPECGVLCRSAYFQTHVKENCLHYARKVGYRCIHCGVIHLTLALLKSHIQERHCQVFHKCAFCPMAFKTASSTMDHSTTQHPTQPHKPSQLIYKCSCEMVFNKKRHIQQHFYQNVSKTQAGVFKCPECPLLFLQKPELMQHVKNTHGVPRNVEELSSLQSSTDTSSNRPGSRAPAEPPATNVAARGSSLTAGRWGRPEAHRRAEARPRMRSTGWTCQECQEWVPDRESYVSHMKKSHGRTLKRYPCRQCEQSFHNPSSLRKHIRNNHDTVKKVYTCGYCTEDSPSFPRPSLLESHISLMHGIRNPDLSQTSKVRHPGGPSPQVNHLKRPVSRMADAPGTSNGATVSSTKRHKSLFQCAKCTFATDSELEFQSHIPQHQVDSSTAQCLLCGLCYTSTSSLNRHLFIVHKVRDQEEGGEDIVEVKVEAPDSEACSGEEVAMETKENGLEECASEPLVTDLGGQQGLALDEDSAQDPQNQPQASQDQNSHALSPQV
modifications: 35S-methionine label
